# Reference: the supplement of paper PMC7826260
# This is one part of the list. The data describe in vitro nicking of single-stranded DNA by Rep domains (3 µM enzyme, 1 h, 37 °C); shown is the middle of each 90-letter strand. Uncut reads are compared with the no-enzyme pool on a log2 scale; more negative means more cut, near 0 not cut, and no call is made. Because reads are shares of a total, they shift together; uncut strands gain when others are lost, and binding without cutting may add a little.
# Legend:
# Test in all cases: uncleaved DNA left, log2 of reads against the no-enzyme library (log2 ratio); higher = less cleavage (more negative = more Rep cleavage of the k-mer); sequences stand for … in CTCGTCCG…ACCGGAGA
# [1] = system: T1, Rep nickase domain of Muscovy duck circovirus
# T1 sequence (protein, residues 1-111, tag omitted): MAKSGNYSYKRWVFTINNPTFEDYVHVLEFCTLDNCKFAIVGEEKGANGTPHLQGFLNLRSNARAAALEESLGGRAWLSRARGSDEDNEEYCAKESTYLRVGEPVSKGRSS
# Method: (§1)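 A pool of 90-nt single-stranded DNAs with seven random bases just before the constant AC of the nick site (name = the seven bases) was cut by 3 µM recombinant His6-SUMO-tagged Rep nickase domain (300 nM DNA, 50 mM HEPES pH 8.0, 50 mM NaCl, 1 mM MnCl2, 1 h, 37 °C, three replicates). Uncut DNA was amplified and sequenced.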
# [2] = system: T2, Rep nickase domain of banana bunchy top virus
# T2 sequence (protein, residues 1-94, tag omitted): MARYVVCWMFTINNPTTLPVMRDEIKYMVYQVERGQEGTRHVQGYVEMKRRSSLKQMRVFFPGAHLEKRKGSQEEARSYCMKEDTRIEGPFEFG
# Method: as §1
# [3] = system: T3, Rep nickase domain of cabbage leaf curl virus
# T3 sequence (protein, residues 1-116, tag omitted): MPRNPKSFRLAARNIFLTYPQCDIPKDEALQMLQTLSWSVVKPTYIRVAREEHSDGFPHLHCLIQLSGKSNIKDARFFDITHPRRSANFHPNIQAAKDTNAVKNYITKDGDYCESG
# Method: as §1
# [4] = system: T4, Rep nickase domain of chickpea chlorotic dwarf virus
# T4 sequence (protein, residues 1-124, tag omitted): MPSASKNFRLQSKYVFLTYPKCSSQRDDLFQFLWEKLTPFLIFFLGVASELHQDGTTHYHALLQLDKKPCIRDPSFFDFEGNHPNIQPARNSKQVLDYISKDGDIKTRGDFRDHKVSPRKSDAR
# Method: as §1
# [5] = system: T5, Rep nickase domain of faba bean necrotic yellows virus
# T5 sequence (protein, residues 1-98, tag omitted): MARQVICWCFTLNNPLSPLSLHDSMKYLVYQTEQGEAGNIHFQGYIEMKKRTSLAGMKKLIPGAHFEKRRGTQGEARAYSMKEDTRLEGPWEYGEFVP
# Method: as §1
# [6] = system: T6, Rep nickase domain of maize striate mosaic virus
# T6 sequence (protein, residues 1-117, tag omitted): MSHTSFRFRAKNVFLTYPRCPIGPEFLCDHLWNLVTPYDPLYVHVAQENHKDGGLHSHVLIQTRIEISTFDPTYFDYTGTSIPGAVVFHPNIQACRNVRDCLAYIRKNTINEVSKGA
# Method: as §1
# [7] = system: T7, Rep nickase domain of porcine circovirus 2
# T7 sequence (protein, residues 2-116, tag omitted): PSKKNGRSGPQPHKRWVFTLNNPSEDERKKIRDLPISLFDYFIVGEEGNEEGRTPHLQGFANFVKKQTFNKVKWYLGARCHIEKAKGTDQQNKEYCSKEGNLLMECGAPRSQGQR
# Method: as §1
# [8] = system: T8, Rep nickase domain of tomato yellow leaf curl virus
# T8 sequence (protein, residues 1-136, tag omitted): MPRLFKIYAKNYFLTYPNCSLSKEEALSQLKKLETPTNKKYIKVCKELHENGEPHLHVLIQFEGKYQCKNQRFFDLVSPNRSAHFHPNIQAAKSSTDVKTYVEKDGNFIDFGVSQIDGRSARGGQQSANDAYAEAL
# Method: as §1
# [9] = system: T9, Rep nickase domain of wheat dwarf virus
# T9 sequence (protein, residues 1-137, tag omitted): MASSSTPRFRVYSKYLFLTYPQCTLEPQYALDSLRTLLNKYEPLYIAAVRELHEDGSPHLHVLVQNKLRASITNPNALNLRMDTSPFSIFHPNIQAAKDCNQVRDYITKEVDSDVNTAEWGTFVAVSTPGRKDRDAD
# Method: as §1
Sequence,uncleaved DNA left (log2) [1],uncleaved DNA left (log2) [2],uncleaved DNA left (log2) [3],uncleaved DNA left (log2) [4],uncleaved DNA left (log2) [5],uncleaved DNA left (log2) [6],uncleaved DNA left (log2) [7],uncleaved DNA left (log2) [8],uncleaved DNA left (log2) [9]
AGTCGTT,-0.0137,-0.297,-0.0341,-1.12,-0.564,-0.225,-3.1,0.0293,0.0697
ATCTGAC,0.09,0.0897,-0.0166,0.604,0.0837,0.352,0.187,0.0561,0.0783
CGCTGGA,0.0291,0.00458,-0.0658,0.213,-0.0373,0.395,0.0277,-0.205,0.0213
GTTCGCG,-0.0699,-0.0611,-0.862,0.214,0.00867,-0.717,0.08,-0.0613,-0.292
GGATCAG,0.0544,0.164,0.683,1.73,0.0109,1.6,0.258,0.111,0.159
TGTGTAT,0.00188,0.106,0.363,0.65,0.0479,1.39,-0.0313,0.102,0.108
TACTAGG,-0.0109,0.0767,0.386,1.06,0.0414,1.19,0.0259,-0.0983,0.014
TTTTGAG,-0.0528,-0.106,-0.802,-0.0819,0.0182,-1.09,0.157,0.0155,-0.0676
TATCGCC,-0.00238,0.00758,-0.188,-0.519,-0.0482,-0.896,-0.0697,-0.0871,-0.00311
GACAGTT,0.00216,-0.104,0.4,-0.215,-0.0353,1.32,-1.06,-0.0947,0.0657
AGTACTT,-0.0888,-0.0956,0.122,-0.549,-0.126,1.13,-3.18,-0.0397,0.0872
ACAAATC,0.137,0.188,0.115,-0.0153,0.137,-0.646,0.197,-0.0864,0.177
GCAGCTC,-0.0601,-0.162,-0.107,-0.0288,-0.115,-0.296,-0.00482,-0.223,-0.119
TTAATGG,0.165,0.154,0.513,1.05,0.15,1.04,0.283,0.0466,0.205
TGCGTGT,0.0175,-0.00849,-0.211,-0.487,-0.0762,-0.428,-0.0558,-0.082,-0.231
GCGCCTG,-0.026,-0.000218,0.0235,0.568,-0.0293,1.63,0.0334,-0.179,0.0439
TGGAACG,0.0086,-0.107,-0.365,-0.648,0.0109,-0.858,0.201,-0.0282,0.00821
ACGGTAC,-0.0652,0.084,-0.0761,-0.295,-0.0429,-0.242,0.0896,0.0426,0.0869
TCGCGCA,0.102,-0.01,-0.416,-0.596,-0.0168,-0.845,-0.0983,-0.0316,-0.00545
TCTCAGT,0.144,0.0531,0.169,-0.101,0.0821,-0.454,0.0634,0.156,0.152
ATCACTA,-0.0812,-0.0259,-0.201,-1.39,-0.0851,-0.761,-0.227,-0.108,-0.0437
TCCCACG,-0.218,-0.00115,-0.837,-1.03,-0.00342,-1.15,-0.106,-0.153,-0.116
GCTGTAT,-0.0449,0.103,0.246,0.397,0.0512,0.724,0.0325,-0.0606,0.0254
CCTTAGG,-0.0595,0.0293,0.336,1.13,-0.0175,1.01,0.00971,-0.0451,0.00565
ATCCAAT,-0.00375,0.0128,-0.0197,-0.405,-0.0728,-0.557,-0.416,0.00746,-0.00628
TTAGACC,0.104,0.0878,0.256,0.34,0.106,-0.306,0.0547,0.0959,0.135
GTGACCT,0.0278,0.0273,0.411,1.14,-0.0944,1.62,0.0142,-0.0358,0.0657
CCCTCTG,-0.254,-0.0947,-0.411,-0.55,-0.242,-0.595,-0.0577,-0.165,-0.229
GAGTCAC,-0.0517,0.102,0.226,0.907,-0.151,1.3,-1.7,0.0284,0.0678
TCCGGCT,0.0696,0.00604,0.035,-0.185,-0.0567,-0.138,0.0468,0.0299,-0.12
